Experimental data reported in paper PMC4336329 (PLoS ONE, 2015).
In all, about 310,000 compounds went through this assay and about 14,000 (4.5%) showed an effect of 50% or more. Effects have a minus sign here. Some of the results follow.

The compounds below were run against human ether-à-go-go-related gene (hERG) potassium channel (human, UniProt Q12809) (assay: primary screen, population patch clamp on CHO cells stably expressing hERG).
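Note: peak tail current of the secondary pulse compared with the same well before compound.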

Chain of human ether-à-go-go-related gene (hERG) potassium channel (Q12809 whole entry, looked up): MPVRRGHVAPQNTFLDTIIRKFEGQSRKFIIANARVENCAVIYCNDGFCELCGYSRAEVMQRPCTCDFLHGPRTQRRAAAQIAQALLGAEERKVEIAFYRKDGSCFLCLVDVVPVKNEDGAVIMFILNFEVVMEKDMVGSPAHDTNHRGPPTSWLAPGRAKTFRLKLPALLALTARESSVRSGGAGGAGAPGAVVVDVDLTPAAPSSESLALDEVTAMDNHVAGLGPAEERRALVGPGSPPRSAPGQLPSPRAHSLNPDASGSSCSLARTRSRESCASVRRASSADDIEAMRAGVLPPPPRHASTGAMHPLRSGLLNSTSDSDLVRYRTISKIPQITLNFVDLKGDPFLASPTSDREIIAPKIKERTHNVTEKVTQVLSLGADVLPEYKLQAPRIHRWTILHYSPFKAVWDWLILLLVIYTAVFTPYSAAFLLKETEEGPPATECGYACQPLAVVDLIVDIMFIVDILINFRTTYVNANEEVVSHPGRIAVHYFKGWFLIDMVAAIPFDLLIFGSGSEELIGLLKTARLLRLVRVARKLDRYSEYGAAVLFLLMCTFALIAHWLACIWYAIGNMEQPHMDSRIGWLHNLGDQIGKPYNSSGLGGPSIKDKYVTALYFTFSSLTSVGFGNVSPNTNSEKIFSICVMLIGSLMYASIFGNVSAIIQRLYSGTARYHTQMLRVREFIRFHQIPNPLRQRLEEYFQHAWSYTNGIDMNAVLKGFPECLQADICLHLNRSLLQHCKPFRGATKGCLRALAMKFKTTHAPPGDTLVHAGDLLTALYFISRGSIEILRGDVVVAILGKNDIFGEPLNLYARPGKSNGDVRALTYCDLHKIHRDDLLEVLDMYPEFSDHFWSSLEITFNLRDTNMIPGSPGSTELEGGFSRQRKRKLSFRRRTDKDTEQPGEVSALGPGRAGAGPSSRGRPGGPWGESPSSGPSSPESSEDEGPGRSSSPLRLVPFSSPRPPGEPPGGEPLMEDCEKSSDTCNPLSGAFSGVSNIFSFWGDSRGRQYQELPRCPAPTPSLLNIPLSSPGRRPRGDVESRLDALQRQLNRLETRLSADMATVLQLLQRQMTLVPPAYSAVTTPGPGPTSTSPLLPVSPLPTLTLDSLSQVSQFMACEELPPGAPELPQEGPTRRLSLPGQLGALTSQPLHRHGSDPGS

Structure (SMILES) | hERG current change (%, negative = inhibition) at 10uM [%]
O=C(Nc1ccccc1Cl)N1CCN(c2ccc3nnc(-c4ccc(F)cc4)n3n2)CC1 | -42.1
Cc1ccc(C(=O)NC(=S)NNC(=O)CC#N)cc1 | 19
O=C(O)c1cccc(Cn2cc(Cl)cn2)c1 | 7.03
COCCN(C(=O)c1ccccc1)c1nc(-c2ccc(OC)cc2)cs1 | 28.5
CC(C)NS(=O)(=O)c1ccc(OCC(=O)NC2CCCCCC2)cc1 | 8.11
COc1ccc(-n2c(C)cc(C(=O)CN3C(=O)C(=O)N(Cc4ccccc4)C3=O)c2C)cc1 | 10.9
Cc1ccccc1N1C(=O)CC(Sc2nnc(-c3ccccc3)o2)C1=O (stereo not drawn) | -1.23
CC12CC3CC(C)(C1)CC(C(=O)Nc1nncs1)(C3)C2 | 11.3
CCN(CC)S(=O)(=O)c1ccc(NC(=O)Cn2c(=O)oc3ccccc32)cc1 | -10.7
O=C(Nc1cccc(Cl)c1)OCc1cn(-c2ccccc2)nn1 | -52.6
O=C(NCCC(=O)N1CCC2(CC1)NCCc1[nH]cnc12)c1cccc(C(F)(F)F)c1 | 17.1
COc1ccc(S(=O)(=O)Nc2cc3c4c(c2)CC(=O)N4CCC3)cc1C | -4.48
O=C(Nc1cc(S(=O)(=O)N2CCOCC2)ccc1O)c1ccco1 | 2.64
Cc1cc2nc(C)c(=O)n(C)c2cc1C | 27.1
COC(=O)COc1cccc2c(=O)n(CC(=O)NCc3ccc(F)cc3)ccc12 | 1.82
O=C(O)C(=O)O.O=C(c1ccco1)N1CCN(Cc2ccc(Br)cc2)CC1 | -38.1
CCOc1ccc(C2/C(=C(\O)c3c(C)[nH]c(C(=O)OC)c3C)C(=O)C(=O)N2CCN(C)C)cc1 (stereo not drawn) | -7.42
CCN(C(=O)C1CCCN1S(=O)(=O)c1ccc2c(c1)n(C)c(=O)c(=O)n2C)c1ccccc1 (stereo not drawn) | -3.32
Cc1cccc(NC(=O)c2cccnc2Cl)n1 | 19.8
CCCc1nc2ccccc2c(C(=O)OCC(=O)NCc2ccc3c(c2)OCO3)c1CC | 0.444
O=C(NCC1CCCN1S(=O)(=O)c1cccs1)c1cccc([N+](=O)[O-])c1 (stereo not drawn) | -24.5
COC(CNC(=O)C1CCN(S(=O)(=O)c2ccc3nc4c(c(C(=O)O)c3c2)CC(C)CC4)CC1)OC (stereo not drawn) | 36.9

Structure (SMILES) | hERG current change (%, negative = inhibition) at 10uM [%]
CCOC(=O)Cn1c(CN(C)Cc2ccccc2)nc2c1c(=O)n(C)c(=O)n2C | -14.6
Clc1ccc(C=NC23CN4CN(CN(C4)C2)C3)cc1 | 8.89
CCc1ccc2oc(C(=O)Nc3nonc3C)c(C)c2c1 | 10.3
O=C(NC1CCN(S(=O)(=O)c2ccccc2)CC1)C1CCCCC1 | 0.841
CCOC(=O)CSc1cc(CSc2ccccc2)nc(-c2ccccc2)n1 | 5.76
Cc1cccc(CCNC(=O)Cc2ccc(NC3=NC4CS(=O)(=O)CC4S3)cc2)c1 (stereo not drawn) | 3.2
CCOC(=O)C1CCN(c2c(C(=O)c3ccccc3)cnc3ccc(Cl)cc23)CC1 | 8.07
O=S(=O)(NCCc1csc(-c2cccnc2)n1)c1cccc(F)c1 | -15.2
COc1ccc(C(c2sc3nc(C)nn3c2O)N2CCCCC2)cc1 (stereo not drawn) | 12.3
CCO.CCOC(=O)C1=C(C)Nc2sc(C(=O)c3ccc(OC)cc3)c(N)c2C1c1ccc(C(=O)OC)cc1 (stereo not drawn) | 14.4
O=C(O)C(=O)O.O=C(c1cccs1)N1CCN(Cc2cccnc2)CC1 | 1.56
COc1cc([N+](=O)[O-])ccc1NC(=O)NNC(=O)C(C)Oc1ccc(F)cc1F (stereo not drawn) | -9.58
Cc1sc2ncnc(SCC(=O)N3CCOCC3)c2c1C | 13.8
C=CCNCCOc1c(C)cc(C)cc1Cl.O=C(O)C(=O)O | -21.2
Cc1ccccc1NC(=O)c1ccc(CN2CCC(Cc3ccccc3)CC2)cc1 | -52.2
CCOc1cccc(-c2nnc3sc(-c4cccs4)nn23)c1 | -12.5
CSc1ccccc1NC(=O)CCc1ccccc1 | 4.12
Fc1ccc(-c2ccnc3nc(-n4cccc4)nn23)cc1 | -17.7
CC1C(=O)CCCCCCCCCC2C1(N1CCOCC1)CS2(=O)=O (stereo not drawn) | -4.39
CCOC(=O)C1CCN(CC(=O)N(CC(C)C)c2c(N)n(CC(C)C)c(=O)[nH]c2=O)CC1 | 22.5
O=C(Cc1ccccc1)NN1C(=O)C2C(C1=O)C1C=CC2C12CC2 (stereo not drawn) | -6.85
COc1ccc2oc(=O)c(C(=O)NCc3ccco3)cc2c1 | 8.73

Structure (SMILES) | hERG current change (%, negative = inhibition) at 10uM [%]
COc1ccc(-c2ccc(=O)n(Cc3c(F)cccc3Cl)n2)cc1 | 8.44
Cc1cc(Nc2ccccc2)nc(N2CCOCC2)n1 | -6.34
C/C=C(/C)C(=O)O[C@@H]1c2c(ccc3ccc(=O)oc23)O[C@@H]1C(C)(C)OC(C)=O | 6.16
CSCCC(NC(=O)C12CC3CC(CC(C3)C1)C2)C(=O)OCC(=O)c1ccc(C)cc1 (stereo not drawn) | 43.8
CCCCn1c(N)c(N(Cc2ccccc2OC)C(=O)C2=COCCO2)c(=O)[nH]c1=O | 19.7
COc1ccc(NC(=O)c2cn(CCC#N)nc2-c2ccc([N+](=O)[O-])cc2)cc1 | 2.58
Cc1cc(C)cc(NC(=O)C2CC3CCC2C3)c1 (stereo not drawn) | 10
COc1ccc(CNC(=O)CN2CCN(c3ccccc3)CC2)cc1 | 3.65
Cc1ccc(S(=O)(=O)N(C)c2ccccc2C(=O)Nc2ccc(F)cc2F)cc1 | -3.62
CCCc1cc(C(=O)Nc2ccc(F)cc2F)no1 | -4.51
Cc1noc(-c2ccc(Cl)cc2)c1C(=O)O/N=C(\N)c1ccc(C(C)(C)C)cc1 | 2.54
COC(=O)C1=C(O)/C(=C\c2ccc(CNS(=O)(=O)c3ccccc3)o2)N=C1C | 16
CC(=O)C1=C(C)N(CC2CC2)C(=O)N[C@H]1c1ccccc1 | 19.6
Cc1nn(-c2ccccc2)c(N2CCCC2)c1/C=N/NC(=O)c1ccccc1O | -2.88
CC(C)CN(CCCNC(=O)CN1C(=O)COc2ccc(S(=O)(=O)N3CCC(C)CC3)cc21)CC(C)C | -2.94
CCOc1cc(C(=O)OCC(=O)c2c(N)n(C)c(=O)n(C)c2=O)cc(OCC)c1OCC | -0.702
COc1ccccc1N1CCN(c2nc(C)cc(C)c2C#N)CC1 | 12.3
COc1ccc(C)cc1NC(=O)C1CCCN(S(=O)(=O)c2ccc(-n3cnnn3)cc2)C1 (stereo not drawn) | -69.8
Cc1ccc(CNC(=O)Cn2nnc3ccccc3c2=O)cc1 | 10.8
COc1cccc(NC(=O)C2(S(=O)(=O)c3ccc(Cl)cc3)CC2)c1 | -15.9
Cc1cccc(NC(=S)NC2CCCCC2)n1 | -7.19
CN1CCN(c2nc(Cl)ncc2F)CC1 | -1.32

Structure (SMILES) | hERG current change (%, negative = inhibition) at 10uM [%]
CC(C)Cc1csc(NC(=O)c2ccccc2Cl)c1C(=O)O | 9.58
Cc1occc1C(=O)N/N=C/C=C/c1ccc(N(C)C)cc1 | -20.1
CCOC(=O)CSc1nnc(Cc2ccc(OC)cc2)n1-c1ccccc1 | 1.35
Clc1ccccc1-c1nnc2sc(-c3ccco3)nn12 | -21.8
O=C(CNC1CCCCCC1)Nc1ccccc1N1CCOCC1.O=C(O)C(=O)O | -1.46
CC(C)NC(=O)NC(=O)COC(=O)c1ncc(Cl)c(Cl)c1Cl | 22.6
CC/C(=N\NC(C)=O)c1ccc(OC(F)F)cc1 | 20.4
COc1ccc(CNc2ccc([N+](=O)[O-])cc2C)cc1 | -7.16
Cc1ccc(NNC(=O)C2CCC2)cc1C | -16.6
COC(=O)c1ccccc1NC(=O)C1COc2ccccc2O1 (stereo not drawn) | -12.4
O=C(O)C1CCN(S(=O)(=O)c2ccc3c(c2)OCCCO3)CC1 | 18.9
CN(C)C(=S)Oc1ccccc1-c1ccccc1OC(=S)N(C)C | 12.6
O=C(NCc1ccc2c(c1)OCO2)C1CCC(=O)N1C1CCCC1 (stereo not drawn) | -6.48
Cc1nn(CC(=O)Nc2cc(S(=O)(=O)N3CCOCC3)ccc2Cl)c(C)c1[N+](=O)[O-] | 14.4
CN(C)S(=O)(=O)N1CCN(C(=O)N2CCCCCC2)CC1 | -12.2
CCOC(=O)c1cccc(NC(=O)COc2ccc([N+](=O)[O-])cc2)c1 | -68
NC(=O)CC[C@@H]1NC(=O)[C@H](CO)NC(=O)c2cc([N+](=O)[O-])cc(I)c2NCC[C@@H](C(N)=O)NC(=O)[C@H](Cc2ccc(O)cc2)NC1=O | 15.5
O=C(O)c1ccc(CS(=O)(=O)Cc2ccccc2F)o1 | 7.86
CC1=C(C(=O)OCc2ccc3c(c2)OCO3)C(c2ccccc2)NC(=O)N1 (stereo not drawn) | -43.6
Cc1ccc(S(=O)(=O)N2CCN(C(=O)CC(C)n3cncn3)CC2)cc1 (stereo not drawn) | 1.17
NS(=O)(=O)c1ccc(NC(=S)N2CCN(Cc3ccc4c(c3)OCO4)CC2)cc1 | 2.93
